From PubChem BioAssay AID485294 (National Center for Advancing Translational Sciences (NCATS), 2010)
The whole screen tested about 370,000 compounds, of which about 150 (0.041%) were called active. Inconclusive results, whose numbers are uncertain, are shown with a selection of clear calls. The call rests on the fitted dose curve; in most records, active means well fitted inhibition curve with a large enough effect; inconclusive means small, poorly fitted or top-dose-only effect; inactive means flat fitted curve, though single readings scatter. No potency is given beside an inconclusive call; the fits are too rough.

Each compound was assayed against Beta-lactamase (Escherichia coli (strain K12)) (UniProt P00811) (assay: qHTS Inhibitors of AmpC Beta-Lactamase (assay with detergent)). Details: AmpC hydrolysis of nitrocefin, absorbance 480 nm, 0.01% Triton; activity change, negative = inhibition: at 114 µM (top of the series).
UniProt P00811, sequence (P00811 whole entry, looked up): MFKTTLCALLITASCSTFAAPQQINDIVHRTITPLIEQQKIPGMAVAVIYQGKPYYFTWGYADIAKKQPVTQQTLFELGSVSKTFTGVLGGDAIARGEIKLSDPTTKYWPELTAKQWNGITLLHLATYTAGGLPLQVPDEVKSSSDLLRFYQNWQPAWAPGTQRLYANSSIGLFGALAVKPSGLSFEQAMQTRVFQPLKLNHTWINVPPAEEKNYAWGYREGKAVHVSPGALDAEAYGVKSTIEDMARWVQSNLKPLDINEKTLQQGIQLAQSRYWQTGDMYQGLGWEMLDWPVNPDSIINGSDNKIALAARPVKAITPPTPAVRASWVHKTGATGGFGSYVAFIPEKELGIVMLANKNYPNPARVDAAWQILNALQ
Summary of the method: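 AmpC (5.3 nM in the dispensed reagent) in 20 mM phosphate pH 7.0 with 0.01% (detergent screen) or 0.0001% Triton X-100 was preincubated with compounds for 15 min at room temperature. Nitrocefin was then added from an 800 uM solution, and hydrolysis was followed at 480 nm.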
Further: nearly all actives have a fitted effect of over 25% in size.
Potency means the concentration at half of the fitted maximal effect; tags describe the fitted curve by direction and shape.
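Wherever activity change, negative = inhibition is given: 0% = no-compound wells and -100% = no-enzyme wells.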

| Compound | Potency | activity change, negative = inhibition |
| --- | --- | --- |
| CSc1nsc(SC)c1NC(=O)OCCc1ccccn1 | inconclusive [inhibitor, partial curve, poor fit] |  |
| O=C(NCc1ccccc1)C(c1ccc(O)cc1)N(C(=O)c1cnccn1)c1ccccc1 (stereo not drawn) | inconclusive [inhibitor, full curve, poor fit] |  |
| C/C(CC(=O)Nc1cccnc1)=N\NC(=O)C(=O)Nc1cccc(C)c1 | inconclusive [inhibitor, partial curve] |  |
| COc1ccc(-c2noc(-c3cccc(Cl)c3)n2)cc1OC | inconclusive [inhibitor, full curve, poor fit] |  |
| CCCN(C(=O)COC(=O)COc1c(C)cccc1C)c1c(N)n(Cc2ccccc2)c(=O)[nH]c1=O | inconclusive [inhibitor, full curve, poor fit] |  |
| O=C(Cc1csc(NC(=O)Nc2cccc(Cl)c2)n1)NC1CCCC1 | inconclusive [inhibitor, single point] |  |
| O=C(CSc1ccc2nnc(-c3cccnc3)n2n1)NCc1ccc2c(c1)OCO2 | inconclusive [inhibitor, full curve, poor fit] |  |
| Cn1c(SCc2ccc(C#N)cc2)nnc1-c1cccc(Cl)c1 | inconclusive [inhibitor, partial curve] |  |
| Cc1cccc(C)c1Nc1c(-c2ccc(N3CCOCC3)cc2)nc2ncccn12 | inconclusive [inhibitor, full curve, poor fit] |  |
| c1ccc(CSCc2ccccc2)cc1 | inconclusive [inhibitor, full curve, poor fit] |  |
| O=C(CC1OC(=O)c2ccccc21)NNC(=O)c1ccc(F)cc1 (stereo not drawn) | inconclusive [inhibitor, full curve, poor fit] |  |
| O=C(CSc1nc2ccsc2c(=O)n1Cc1ccc(C(=O)O)cc1)NCC1CCCO1 (stereo not drawn) | inconclusive [inhibitor, partial curve, poor fit] |  |
| O=C(c1ccccc1)N1CCN(C(=O)C23CC4CC(CC(C4)C2)C3)CC1 | inconclusive [inhibitor, partial curve, poor fit] |  |
| CCOC(=O)c1c(C)[nH]c(C)c1C(=O)COC(=O)CNC(=O)c1ccc(OCC)cc1 | inconclusive [inhibitor, full curve] |  |
| Cc1ccc(Nc2nc(N)nc(CN3CCCCCC3)n2)cc1 | inconclusive [inhibitor, full curve, poor fit] |  |
| CCc1nc2ccc(C(=O)NCc3ccc(N(C)C)cc3)cc2nc1CC |  | inactive: -6.19% |
| CC(C)NC(=O)c1ccc2c3n(nc2c1)-c1ccccc1CO3 |  | inactive: -7.61% |
| CC(Sc1ccsc1[N+](=O)[O-])C(=O)NCCc1ccc(Cl)cc1 (stereo not drawn) |  | inactive: -13.6% |
| CC1CCCC(NC(=O)COC(=O)c2cccc(NS(=O)(=O)/C=C/c3ccccc3)c2)C1C (stereo not drawn) | inconclusive [inhibitor, single point] |  |
| NC(=O)CSc1nnc(NC(=O)C23CC4CC(CC(C4)C2)C3)s1 | inconclusive [inhibitor, full curve] |  |
| Cc1noc(C)c1COc1ccc(C(=O)NCCc2ccc(F)cc2)cc1 | inconclusive [inhibitor, full curve, poor fit] |  |
| COc1ccc(OC)c(S(=O)(=O)N2CCN(C)CC2)c1 | inconclusive [inhibitor, full curve, poor fit] |  |
| Cc1ccc2nc(/C(C#N)=N/O)[nH]c2c1 | inconclusive [inhibitor, partial curve] |  |

| Compound | Potency | activity change, negative = inhibition |
| --- | --- | --- |
| CNC(=S)N/N=C/c1cn(CCOc2ccc(OC)cc2)c2ccccc12 |  | inactive: -12.4% |
| O=C(COc1ccccc1)NC(=S)N1CCc2ccccc21 | inconclusive [inhibitor, full curve] |  |
| CCOc1ccc(NC(=O)Cn2cc(C(=O)c3ccc(CC)cc3)c(=O)c3cc4c(cc32)OCO4)cc1 |  | inactive: 14.9% |
| CCCC(=O)N1CCc2cc(OC)c(OC)cc2C1COc1ccc2c(C)cc(=O)oc2c1 (stereo not drawn) |  | inactive: 3.27% |
| O=C(CN1CCN(c2ccccc2F)CC1)c1c[nH]c2ccc(F)cc12 |  | inactive: 3.83% |
| CCCCn1c(SCC(=O)c2ccc3c(c2)OCCO3)nnc1-c1ccoc1C | inconclusive [inhibitor, full curve, poor fit] |  |
| COc1ccc(NC(=O)Cn2c(=O)cc(C)c3c(C)nn(C)c32)cc1 |  | inactive: 3.53% |
| Cc1ccc(C2c3c(C)nn(-c4ccc([N+](=O)[O-])cc4)c3N=C3C(=O)Nc4ccccc4N32)cc1 (stereo not drawn) | inconclusive [inhibitor, single point] |  |
| COc1ccc(-c2ccnc(SCC(=O)c3ccc(Br)cc3)n2)cc1 | inconclusive [inhibitor, partial curve] |  |
| Cc1ccc(-c2csc(NC(=O)CSc3nc4ccccc4[nH]3)n2)cc1 | inconclusive [inhibitor, partial curve, poor fit] |  |
| O=c1c2ccccc2nc2n1C(CBr)CN2 (stereo not drawn) | inconclusive [inhibitor, full curve, poor fit] |  |
| CCN1C(=O)N(S(=O)(=O)C(F)(F)F)[C@@H](c2ccccc2)C(C(=O)OC)=C1C |  | inactive: 0.383% |
| O=C1NC(=S)S/C1=C\C=C\c1ccc([N+](=O)[O-])o1 |  | inactive: -8.07% |
| CC(C)CCNC(=O)NC(=O)CSc1nnc(-c2ccccc2Br)o1 | inconclusive [inhibitor, single point] |  |
| COc1ccc(-c2ccn(-c3cccc(F)n3)n2)cc1 |  | inactive: 5.05% |
| O=C(CSc1nccn(-c2ccc(F)c(F)c2)c1=O)NC1CCCC1 | inconclusive [inhibitor, full curve, poor fit] |  |
| Cc1cc(C(=O)N/N=C/c2ccc(O)c(O)c2O)c(C)n1-c1ccccc1 |  | inactive: 2.29% |
| COc1ccc(S(=O)(=O)N2CCOCC2)cc1NC(=O)Cc1ccccc1Cl | inconclusive [inhibitor, full curve, poor fit] |  |
| Cc1cnc(C(=O)OCC(=O)Nc2cc(-c3ccccc3)nn2-c2ccccc2)cn1 | inconclusive [inhibitor, full curve, poor fit] |  |
| O=C1S/C(=C/c2ccccc2)C(=O)N1CC(O)Cn1c2ccccc2c2ccccc21 (stereo not drawn) |  | inactive: -11.6% |
| Cc1cc(C)n2ncc(/C(N)=N/OC(=O)Nc3ccc(Cl)cc3)c2n1 |  | inactive: 7.45% |
| CCOC(=O)c1c(NC(=O)C[n+]2ccc(N(C)C)cc2)sc(C)c1C | inconclusive [inhibitor, full curve, poor fit] |  |
| Cc1ccc(NC(=O)C2CCN(C(=O)N3CCOc4ccccc43)CC2)cc1 | inconclusive [inhibitor, partial curve] |  |

| Compound | Potency | activity change, negative = inhibition |
| --- | --- | --- |
| Cc1ccc2c(C)ccc(O)c2n1 | inconclusive [inhibitor, partial curve, poor fit] |  |
| CCOCCCNC(=O)c1cn(CC)c2ccc(S(=O)(=O)N(C)C3CCCCC3)cc2c1=O |  | inactive: -1.61% |
| O=C(O)c1ccccn1 | inconclusive [inhibitor, partial curve] |  |
| O=C(Nc1ccc(Cl)cc1C(=O)N1CCOCC1)c1ccco1 |  | inactive: -2.04% |
| COc1ccc(N2CCN(C(=O)C3CCN(Cc4nc(-c5ccc(Cl)cc5)oc4C)CC3)CC2)cc1 |  | inactive: -11.8% |
| CC(C)c1c(C(=O)N/N=C/c2ccc(OCc3ccccc3)cc2)nnn1-c1nonc1N | inconclusive [inhibitor, full curve, poor fit] |  |
| COc1cccc(OC)c1C(=O)NNC(=O)c1ccccc1-n1cccc1 | inconclusive [inhibitor, partial curve] |  |
| O=C(N/N=C\c1ccco1)Nc1cccc(Cl)c1 |  | inactive: 3.1% |
| CC(C)C(c1nnnn1C1CCCC1)N1CCN(c2ccccc2F)CC1 (stereo not drawn) | inconclusive [inhibitor, partial curve, poor fit] |  |
| Cc1ccc(Cn2ccc(C3CC3)n2)cc1 | inconclusive [inhibitor, full curve, poor fit] |  |
| COc1cccc(NC(=O)N2CCCC(C(=O)Nc3ccccc3OC)C2)c1 (stereo not drawn) | inconclusive [inhibitor, partial curve, poor fit] |  |
| CCn1cnc2cc(NCc3ccc(C)cc3)ccc21 |  | inactive: -14.9% |
| COc1ccc(C(C)NC(=O)C2CCCC2)cc1OC (stereo not drawn) |  | inactive: 2.01% |
| CCN(CC)S(=O)(=O)c1cc(NC(=O)C(C)N2CC=C(c3ccccc3)CC2)ccc1C (stereo not drawn) | inconclusive [inhibitor, partial curve, poor fit] |  |
| Cc1[nH]nc(-c2ccc(OCc3cnn(-c4ccccc4)c3)cc2O)c1Oc1ccc(Cl)cc1 | inconclusive [inhibitor, full curve, poor fit] |  |
| Nc1nc(NS(=O)(=O)c2ccc(Cl)cc2)nn1-c1ccccc1 |  | inactive: -3.12% |
| Cc1cc(C)cc(NC(=S)NCc2ccc(F)cc2)c1 | inconclusive [inhibitor, single point] |  |
| CCCCc1cc(=O)oc2cc(OCC(=O)N(CC)CC)c(Cl)cc12 | inconclusive [inhibitor, full curve, poor fit] |  |
| O=C(Nc1ccc(F)cc1)c1cc2ccccc2o1 | inconclusive [inhibitor, full curve, poor fit] |  |
| C/C(=N\NC(=O)CSc1nc2ccccc2o1)c1ccc(O)cc1 |  | inactive: -9.37% |
| COc1cc(C(=O)N2CCN(c3ccccc3O)CC2)ccc1OCC(=O)N1CCOCC1 | inconclusive [inhibitor, single point] |  |
| N#CC1=C(N)Oc2cc(N)ccc2C1c1cccc(F)c1 (stereo not drawn) | inconclusive [inhibitor, partial curve, poor fit] |  |
